PubChem BioAssay AID504339 (National Center for Advancing Translational Sciences (NCATS), 2011)
About 17,000 (4.4%) of roughly 390,000 compounds were called active. The shares of active, inactive and inconclusive entries below differ from those in the screen. The call rests on the fitted dose curve; in most records, active means well fitted inhibition curve with a large enough effect; inconclusive means small, poorly fitted or top-dose-only effect; inactive means no such curve, though single readings can be large or run the other way. Where the call is inconclusive, the potency comes from a doubtful curve fit.

These compounds were tested against Lysine-specific demethylase 4A (Homo sapiens) (UniProt O75164) (assay: qHTS Assay for Inhibitors of JMJD2A-Tudor Domain). Settings: AlphaScreen JMJD2A-Tudor / H3K4me3 peptide binding; series mostly up to 114 µM.
UniProt O75164, sequence (O75164 whole entry, looked up, the tested form may be a part): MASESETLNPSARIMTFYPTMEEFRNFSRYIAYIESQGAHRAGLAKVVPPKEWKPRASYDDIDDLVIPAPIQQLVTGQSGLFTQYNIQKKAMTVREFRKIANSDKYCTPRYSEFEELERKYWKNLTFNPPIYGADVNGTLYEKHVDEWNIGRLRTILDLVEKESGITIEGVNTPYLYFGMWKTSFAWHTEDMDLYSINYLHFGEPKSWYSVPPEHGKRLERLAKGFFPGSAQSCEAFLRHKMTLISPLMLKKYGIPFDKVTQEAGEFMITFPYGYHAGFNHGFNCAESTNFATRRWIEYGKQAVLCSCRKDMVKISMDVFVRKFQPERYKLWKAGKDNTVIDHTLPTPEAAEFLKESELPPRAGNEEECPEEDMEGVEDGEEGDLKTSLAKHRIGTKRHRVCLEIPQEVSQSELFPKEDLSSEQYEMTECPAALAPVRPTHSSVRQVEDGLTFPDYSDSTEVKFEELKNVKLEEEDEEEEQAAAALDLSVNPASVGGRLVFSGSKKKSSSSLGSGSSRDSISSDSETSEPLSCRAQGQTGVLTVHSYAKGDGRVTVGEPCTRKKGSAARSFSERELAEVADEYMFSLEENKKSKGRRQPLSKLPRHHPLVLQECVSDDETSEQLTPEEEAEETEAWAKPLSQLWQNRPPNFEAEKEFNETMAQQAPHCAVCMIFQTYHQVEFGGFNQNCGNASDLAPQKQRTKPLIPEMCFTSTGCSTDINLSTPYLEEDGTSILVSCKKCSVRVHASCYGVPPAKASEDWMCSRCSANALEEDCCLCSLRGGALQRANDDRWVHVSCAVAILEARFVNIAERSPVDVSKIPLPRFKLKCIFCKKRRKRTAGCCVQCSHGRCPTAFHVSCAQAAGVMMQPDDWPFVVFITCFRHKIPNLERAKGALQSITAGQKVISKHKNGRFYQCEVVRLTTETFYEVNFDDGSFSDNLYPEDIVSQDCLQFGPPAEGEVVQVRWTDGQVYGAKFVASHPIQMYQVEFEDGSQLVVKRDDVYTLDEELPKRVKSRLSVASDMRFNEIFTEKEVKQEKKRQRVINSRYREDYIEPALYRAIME
Further: nearly all actives have a fitted effect of over 50% in size.
Potency means the concentration at half of the fitted maximal effect; tags describe the fitted curve by direction and shape.

Potency, active:
Oc1ccccc1-c1n[nH]c(=S)n1Cc1ccccc1 20 µM
NC(=O)C1CCCN(CC(O)COCc2ccc(Cl)cc2)C1 (stereo not drawn) 17.8 µM
C=CCNc1nc(-c2ccc(O)c(C(N)=O)c2)cs1 14.1 µM
c1ccc(C2=Nc3c(ccc4ccccc34)C(c3ccncc3)=NN2)cc1 35.5 µM
CCCCN(CCCNC(=S)NCCCc1cnc[nH]1)c1ccc(Br)cn1 50.1 µM
Cc1ccc2[nH]c3c(c2c1)CN(C(=O)CN1CCN(c2cccc(C)c2C)CC1)CC3 56.2 µM
CCOC(=O)c1cc(-c2ccccc2)n(CC(=O)Nc2ccc(OC)cc2OC)c1C 22.4 µM
Cc1[nH]n(-c2ccccc2)c(=S)c1C=Nc1ccc([N+](=O)[O-])cc1 1.78 µM

Potency, inactive:
O=C1c2ccccc2C(=O)N1/N=C/c1ccc(Oc2ccc([N+](=O)[O-])cn2)cc1
CCOc1ccc(C(=O)c2cn(Cc3ccccc3OC)c3cc4c(cc3c2=O)OCCO4)cc1
O=Cc1ccc(-c2ccccc2OC(F)(F)F)o1
CCOC(=O)Cc1c[nH]c2ccc([N+](=O)[O-])cc12
O=C(CN(Cc1ccccc1)S(=O)(=O)c1ccc2c(c1)OCCO2)N/N=C/c1ccc(F)cc1
C=C1C(O)[C@@H]2O[C@]3(CC[C@H](/C=C/C(C)[C@@H]4CC(C)=CC5(O[C@H](C[C@@](C)(O)CO)CCC5O)O4)O3)CC[C@H]2O[C@@H]1C(O)CC(C)[C@H]1OC2(CCCCO2)CCC1C (stereo partly drawn)
CCOC(=O)c1nc(Nc2ccc(C(=O)OCC(C)C)cc2)c2ccccc2n1
CC(OC(=O)c1cnc(Cl)c(Cl)c1)C(=O)NCc1ccccc1 (stereo not drawn)
CCOc1ccc(NC(=O)C2CCN(S(=O)(=O)c3cc(-c4noc(C)n4)ccc3C)CC2)cc1

Potency, inconclusive:
O=[N+]([O-])c1ccc(Nc2nc(NC3CCCCC3)nc(N3CCCC3)n2)cc1 28.2 µM [inhibitor, partial curve]
COc1cc(-c2cc(C(=O)N3CCN(c4ccccn4)CC3)c3ccccc3n2)cc(OC)c1OC 50.1 µM [inhibitor, partial curve]
CCOC(=O)c1c(C)[nH]c(C)c1C(=O)CSc1nc2ccccc2c(=O)n1-c1ccccc1C 39.8 µM [inhibitor, partial curve]
CCCCC(=O)NC(=S)NNC(=O)c1ccc(Cl)cc1Cl 31.6 µM [inhibitor, partial curve]
COc1ccccc1-n1c([S-])c(C(=O)Nc2ccccc2C(F)(F)F)[n+]2ccc(C(=O)NCCO)cc12 63.1 µM [inhibitor, partial curve, poor fit]
CCN(N=Nc1cccc([N+](=O)[O-])c1)c1cccc([N+](=O)[O-])c1 11.2 µM [inhibitor, full curve]
Cc1cc([N+](=O)[O-])cc(/C=N/n2c(C)nc3ccccc3c2=O)c1O 7.08 µM [inhibitor, single point]
CCCCNc1c(-c2ccc(-c3ccc(OC)cc3)c(OC)c2)nc2ccccn12 44.7 µM [inhibitor, partial curve]
CCC(=O)OCC(=O)Nc1ncc(C(F)(F)F)cc1Cl 31.6 µM [inhibitor, partial curve]
S=C(c1ccc(-c2ccccc2Cl)o1)N1CCCCC1 50.1 µM [inhibitor, partial curve]
O=C(c1ccccc1)c1ccc(C(=O)N2CCN(c3ccccc3)CC2)cc1 89.1 µM [inhibitor, partial curve]
COc1c(O)ccc(/C=C(\C#N)c2nc3ccccc3[nH]2)c1[N+](=O)[O-] 56.2 µM [inhibitor, partial curve]
COc1ccc(C2CC(c3ccc4ccccc4c3)=NN2C(=O)COC(=O)C2CCC(=O)N2)cc1 (stereo not drawn) 50.1 µM [inhibitor, partial curve]
O=C(N/N=C/c1cc(Br)c(Br)o1)C(O)c1ccccc1 (stereo not drawn) 20 µM [inhibitor, full curve]
Cc1nc(C)c(C(=O)C2=C(O)C(=O)N(CCCn3ccnc3)C2c2ccc(Cl)cc2)s1 (stereo not drawn) 44.7 µM [inhibitor, partial curve]
CCOc1ccc(NC(=O)Cn2cc(C(=O)CC)c3ccccc32)cc1 12.6 µM [inhibitor, partial curve]
CC(=O)/C(=N/Nc1ccc(Br)cc1)N1CCCc2ccccc21 35.5 µM [inhibitor, partial curve]
COCCNCC(=O)Nc1nc(C)cs1 7.08 µM [inhibitor, partial curve, poor fit]
COc1ccc(CNc2cccc3[nH]c(C(F)(F)F)nc23)cc1 56.2 µM [inhibitor, partial curve]
CC1CCC(NC(=O)CCCn2sc3ccccc3c2=O)CC1 (stereo not drawn) 39.8 µM [inhibitor, single point]
CCc1ccc2c(c1)C(=O)c1ccccc1C2=O 35.5 µM [inhibitor, partial curve]
Nc1ccc(C(=O)N/N=C/c2cn(Cc3cccc(F)c3)c3ccccc23)cc1 35.5 µM [inhibitor, partial curve]
O=C1CCCN2N=C(SCC(=O)Nc3ccccc3C(F)(F)F)SC2=N1 35.5 µM [inhibitor, full curve, poor fit]
CC1=NN(c2ccccc2)C(=O)/C1=C\c1cn(-c2ccccc2)nc1C 8.91 µM [inhibitor, partial curve, poor fit]
COc1ccc(C(=S)N2CCOCC2)cc1OC(=O)c1cc([N+](=O)[O-])c(C)c([N+](=O)[O-])c1 50.1 µM [inhibitor, partial curve]
COc1cc2c(cc1OC)-c1cc(Nc3ccc(N(C)C)cc3)nc(=O)n1CC2 79.4 µM [inhibitor, partial curve]
